Out of some 45,000 compounds screened, about 200 (0.44%) were called active. About 7% were inconclusive and are not listed. Calls follow the shape of the dose curve; as a rule, active = well fitted activation curve with a large enough effect; inconclusive = small, poorly fitted or top-dose-only effect; inactive = no such curve, though single readings can be large or run the other way. Some of the results follow.
assay: qHTS of TDP-43 Inhibitors: NCGC Sytravon Library Screen; conditions: yeast TDP-43 toxicity rescue, BacTiter-Glo growth, 24 h; series mostly up to 46.1 µM; growth rescue (activation): at the top concentration; also: nearly all actives have a fitted effect of over 55% in size; as to growth rescue (activation): 0% is about no effect
How it was run: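 TDP-43-expressing yeast, pregrown in raffinose, seeded at OD600 0.02 in galactose medium with compound for 24 hr at 30 deg C. Growth read by BacTiter-Glo luminescence, so rescue of toxicity appears as activation.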
Potency is read from the fitted curve at half-maximal effect.

| Structure (SMILES) | growth rescue (activation) | Potency |
| --- | --- | --- |
| N#CCC(=O)N/N=C/c1ccc(N2N=C(c3ccccc3)CC2c2ccccc2)cc1 (stereo not drawn) | inactive: 20.2% |  |
| COC(=O)c1ccc(CNC(=O)COC(=O)CCC2CCCC2)cc1 | inactive: 8.08% |  |
| CCOC(=O)C1(C)CCN1C(=O)c1csnn1 (stereo not drawn) | inactive: 8.09% |  |
| CCCN(C(=O)CSc1nnnn1C)c1c(N)n(Cc2ccccc2)c(=O)[nH]c1=O | inactive: 7.26% |  |
| Cc1ccc(OCCC(=O)Nc2c(C)n(C)n(-c3ccccc3)c2=O)cc1 | inactive: -4.08% |  |
| O=C(CN(Cc1ccccc1)S(=O)(=O)c1ccccc1)N/N=C/c1ccccc1C(=O)O | inactive: 6.91% |  |
| COc1cccc(N(C(=O)CNC(=O)c2ccco2)C(C(=O)NC2CCCCC2)c2cccnc2)c1 (stereo not drawn) | inactive: -10.3% |  |
| Cc1ccc(-n2nc3c(c2NC(=O)c2ccc4c(c2)OCO4)CSC3)cc1 | inactive: -4.17% |  |
| Cn1cc(C(=O)O)c(-c2ccc3c(c2)OCCCO3)n1 | inactive: 11.9% |  |
| COc1cc(NC(=O)c2ccccc2C)c(OC)cc1NC(=O)CN1CCOCC1 | inactive: -6.45% |  |
| O=C(NCCN1CCOCC1)c1ccc2c(c1)N(Cc1cccc(F)c1)C(=O)c1ccccc1S2 | inactive: 5.42% |  |
| CS(=O)(=O)Nc1ccc(C2=NN(S(C)(=O)=O)C(c3ccc4c(c3)OCO4)C2)cc1 (stereo not drawn) | inactive: 7.89% |  |
| Cc1cc(C)cc(NC(=S)NCC2CCN(C(C)c3ccccc3)C2)c1 (stereo not drawn) | inactive: -5.11% |  |
| CCOC(=O)c1c(NC(=S)Nc2ccc(OC)cc2)sc2c1CCCCC2 | inactive: -11.5% |  |
| COc1ccc(OCC(=O)Nc2ccc(C)c(S(=O)(=O)N(C)C)c2)cc1 | inactive: -7.67% |  |
| COCCCNC(=O)c1c[nH]c2ccc(S(=O)(=O)N(C)c3ccccc3C)cc2c1=O | inactive: -10.1% |  |
| Cc1cc2oc(C(=O)N(Cc3ccc(N(C)C)cc3)Cc3ccco3)c(C)c2cc1Cl | inactive: 20.7% |  |
| CC(C)(O)C#Cc1ccc(CN2CCN(Cc3ccccc3)C(CCO)C2)cc1 (stereo not drawn) | inactive: -14.2% |  |
| CC(=O)C(C(C)=O)c1cc(NS(=O)(=O)c2ccccc2)ccc1NS(=O)(=O)c1ccccc1 | inactive: -23.8% |  |
| CN1C(=O)NC(c2ccc(O)cc2)C2=C1CN(c1ccc(O)cc1)C2=O (stereo not drawn) | inactive: 11.1% |  |
| CC(=O)NCCc1c[nH]c2ccc(OCC(O)CNC(C)(C)C)cc12 (stereo not drawn) | inactive: -11.2% |  |
| Cc1ccc(C(=O)Nc2cccc3[nH]c(C(F)(F)F)nc23)cc1 | inactive: 6.55% |  |

| Structure (SMILES) | growth rescue (activation) | Potency |
| --- | --- | --- |
| O=C(/C=C/c1cccs1)NC(=S)NNC(=O)c1ccccc1O | inactive: -9.33% |  |
| Cc1cc(C)c(C)c(S(=O)(=O)NCC(=O)NCC2CCCCC2)c1C | inactive: -11.4% |  |
| Cc1cccc(C(=O)OCC(=O)NC2CC2)c1O | inactive: 3.75% |  |
| COc1ccc(Nc2oc(/C=C/c3ccccc3OC)nc2C#N)cc1 | inactive: 15% |  |
| O=C(Cn1nc(-c2ccccc2)ccc1=O)N1CCCCC1 | inactive: 1.47% |  |
| CC(C)(C)c1ccc(NC(=O)CCNC(=O)c2ccco2)cc1 | inactive: -5% |  |
| Cc1nc(C)c(C(=O)OCC(=O)NCc2ccccc2Cl)s1 | inactive: 0.346% |  |
| COc1ccc(OC)c(NC(=O)C(=O)NCc2ccncc2)c1 | inactive: 8.4% |  |
| Cc1cc(C)n2nc(SCC(=O)N3CCCC3)nc2n1 | inactive: 6.42% |  |
| COc1ccccc1/C=C1\SC(=S)N(NS(=O)(=O)c2ccccc2)C1=O | inactive: -6.54% |  |
| COc1cccc(-c2cc(C(F)(F)F)n3ncc(C(=O)N4CCc5ccccc5C4)c3n2)c1 | inactive: -20.7% |  |
| CCOC(=O)N1CCN(Cc2nc(CC3CC3)no2)CC1 | inactive: -4.22% |  |
| CCSc1nnc(NC(=O)[C@@H](NC(=O)c2ccc(C(C)(C)C)cc2)C(C)C)s1 | inactive: 7.74% |  |
| O=C(CCN1C(=O)c2cccc([N+](=O)[O-])c2C1=O)NC1CCCCCC1 | inactive: 18.6% |  |
| CCCCCCn1c(=O)[nH]c2c(c1=O)CCC2 | inactive: 8.82% |  |
| CCC(CC)C(=O)NCCCCc1ccccc1 | inactive: 20.1% |  |
| CCCOc1ccc(C2C(C(=O)OC)=C(C)N=C3SCCC(=O)N32)cc1OCC (stereo not drawn) | inactive: 7.96% |  |
| O=C(Cn1c(=O)oc2ccccc21)Nc1ccccc1C(F)(F)F | inactive: 14.2% |  |
| CNc1nc(C)nc(N/N=C/c2ccccc2)n1 | inactive: 8.69% |  |
| COCCCNC(=O)/C(C#N)=C/c1c(N2CCCCCC2)nc2ccccn2c1=O | inactive: 5.95% |  |
| COc1ccc(-n2cc(C(=O)O)c(=O)cc2C)cc1 | inactive: -1.47% |  |
| Cc1cc(NC(=O)CSc2n[nH]c(-c3ccccc3Br)n2)no1 | inactive: -16% |  |

| Structure (SMILES) | growth rescue (activation) | Potency |
| --- | --- | --- |
| Cc1ccc(NC(=O)CSc2nc(N)cc(N)n2)cc1S(=O)(=O)N1CCOCC1 | inactive: -20.4% |  |
| Nc1cc(N)nc(SCC(=O)NCC(=O)Nc2ccc(F)c(F)c2F)n1 | inactive: -17.5% |  |
| CCCc1nnc(SCC(=O)Nc2nccs2)o1 | inactive: 4.26% |  |
| CN(CCOc1ccccc1)C(=O)C1CCC(=O)N(CCN2CCOCC2)C1 (stereo not drawn) | inactive: 11.4% |  |
| CN1CCCC(OC(=O)c2cccc(S(=O)(=O)N3CCCCCC3)c2)C1 (stereo not drawn) | inactive: -0.0778% |  |
| O=C(COC(=O)c1sc2ccccc2c1Cl)NCC1CCCCC1 | inactive: 5.36% |  |
| NC(=S)N/N=C/c1ccc(-c2ccc(SC(F)F)cc2)o1 | inactive: 32.6% |  |
| Cc1nc(N2CCN(c3ccccn3)CC2)c2c(C)c(C(=O)N3CCN(c4ccccc4F)CC3)sc2n1 | inactive: 2.98% |  |
| COc1cccc(N=CC=C2OC(C)(C)C(C)(C)O2)c1 | inactive: -16.7% |  |
| CC1CC1c1ccc(/C=C(\C#N)C(=O)Nc2ccc(Cl)cc2Cl)o1 (stereo not drawn) | inactive: -3.93% |  |
| CN(CCCC(=O)N1CCCC(C(N)=O)C1)S(=O)(=O)c1ccc(F)cc1 (stereo not drawn) | inactive: 9.31% |  |
| C/C(=N\NC(=O)CSc1nc(C)cc(C)n1)c1ccc([N+](=O)[O-])cc1 | inactive: -16.1% |  |
| COc1ccc(C(CC(=O)O)NC(=O)COc2ccc(C)cc2)cc1OC (stereo not drawn) | inactive: 15% |  |
| CCOC(=O)NC(=O)CSc1nc2ccccc2[nH]1 | inactive: -1.31% |  |
| CCCCCC(=O)NNC1CC(=O)N(c2ccccc2)C1=O (stereo not drawn) | inactive: -16.2% |  |
| CC(=O)c1ccc(OC(=O)CCc2nc3ccccc3s2)cc1 | inactive: -16.4% |  |
| COC(=O)C1=C(C)NC(=S)NC1c1ccc(-c2cc(Cl)ccc2Cl)o1 (stereo not drawn) | inactive: 27.4% |  |
| Cc1nc(-c2ccccc2)sc1C(=O)O | inactive: 25% |  |
| CC(C)CC(=O)N(Cc1ccc(F)cc1)C1CCS(=O)(=O)C1 (stereo not drawn) | inactive: 3.07% |  |
| CCCCC(=O)N(C)c1c(C)nc2ccc(C(=O)N(C)Cc3ccco3)cn12 | inactive: -3.12% |  |
| COC(=O)CSc1ccsc1C(=O)O | inactive: 2.17% |  |
| COc1cccc(C(O)c2nc(-c3cncnc3)cs2)c1 (stereo not drawn) | inactive: 14.9% |  |

| Structure (SMILES) | growth rescue (activation) | Potency |
| --- | --- | --- |
| O=C1C=C(c2cccs2)C[C@H](c2ccccc2)[C@H]1n1nnc([N+](=O)[O-])n1 | inactive: -67% |  |
| CCN(CC)c1ccc(N=Nc2nn(C)c(C)c2[N+](=O)[O-])cc1 | inactive: 8.79% |  |
| O=C1CC(c2ccccc2)Sc2nc(-c3ccccc3)c(-c3ccccc3)n21 (stereo not drawn) | inactive: 21.1% |  |
| COc1ccc(C(=O)NCc2ncccc2C)cc1OC1CCN(C(C)=O)CC1 | inactive: 7.26% |  |
| CCCn1cnc2cc(NCc3ccc(Br)cc3)ccc21 | inactive: 6.77% |  |
| COc1ccc(/C=N/NC(=O)CNC(=O)c2ccncc2)cc1 | inactive: 15.2% |  |
| Clc1cccc(COn2c(-c3ccc(Cl)cc3Cl)nc3ncccc32)c1 |  | active: 25.1 µM |
| CNc1ncnc2c1ncn2[C@H]1CN(Cc2ccc(OC)cc2)C[C@@H](CO)O1 | inactive: 8.11% |  |
| CCOC(=O)c1c(C)[nH]c(C(=O)COC(=O)c2ccco2)c1C | inactive: 6.96% |  |
| Cn1cccc1C(=O)NCCc1ccccc1 | inactive: 1.29% |  |
| COc1ccc(C(=O)NNC(=O)C2CCN(S(=O)(=O)c3ccc(C)cc3)CC2)cc1 | inactive: -7.9% |  |
| Cc1ccc2[nH]c(CSc3ccccc3)cc(=O)c2c1 | inactive: -2.37% |  |
| CCCn1c(=O)c2c(nc3n2CCS3)n(C)c1=O | inactive: 12.6% |  |
| CC(C)CCNC(=O)CN(Cc1ccccc1)C(=O)CCC(=O)Nc1nccs1 | inactive: -0.503% |  |
| COCCCNC(=O)Cn1cnc2sc(C)c(S(=O)(=O)N3CCN(c4ncccn4)CC3)c2c1=O | inactive: 5.38% |  |
| CN(C)c1ccc(/C=N/n2c(-c3cccnc3)n[nH]c2=S)cc1 | inactive: 0.0231% |  |
| COc1ccc(CN2CCC(n3nccc3NC(=O)C3CC3)CC2)cc1O | inactive: 7.46% |  |
| O=C(C1=C(c2ccccc2)C(=O)c2ccccc2C1=O)c1ccccc1 | inactive: 4.76% |  |
| CCC1Oc2ccc(C)cc2N(CC(=O)NC2CCCCC2)C1=O (stereo not drawn) | inactive: 5.99% |  |
| CCOc1ccc(S(=O)(=O)n2cc(F)c(=O)[nH]c2=O)cc1 | inactive: 2.6% |  |
| COc1cccc(-c2nnc(SCC3CNC(=O)O3)n2-c2ccc(Cl)cc2)c1 (stereo not drawn) | inactive: -2.01% |  |
| CN1CCN(C(=S)c2cn(CCOc3ccccc3)c3ccccc23)CC1 | inactive: -2.59% |  |

| Structure (SMILES) | growth rescue (activation) | Potency |
| --- | --- | --- |
| CCN(CC(=O)Nc1ccc(OC)cc1)CC(=O)Nc1ccc(Br)cc1F | inactive: -2.91% |  |
| CCn1cc([N+](=O)[O-])c(C(=O)NCc2ccc3c(c2)OCO3)n1 | inactive: 11.2% |  |
| Cc1ccc(NC(=O)c2cnccn2)cc1S(=O)(=O)N1CCCCCC1 | inactive: 32.8% |  |
| CCCn1c(SCC(=O)NC2CCCCC2)nnc1-c1cccnc1 | inactive: 2.86% |  |
| CCOc1ncccc1C(=O)Nc1ccc(S(=O)(=O)N2CCCC2)cc1 | inactive: 3.84% |  |
| COC(=O)C1=C(C)NC(=O)C1(NC(=O)c1cccnc1)C(F)(F)F (stereo not drawn) | inactive: 21.8% |  |
| CCOC(=O)CCC(NC(=O)CCCC(=O)NC(CCC(=O)OCC)C(=O)OCC)C(=O)OCC (stereo not drawn) | inactive: 14.7% |  |
| Cn1c(CCCNC(=O)c2ccco2)nc2ccccc21 | inactive: 6.07% |  |
| CN(C)S(=O)(=O)c1ccc(NC(=O)CCNC(=O)c2ccco2)cc1 | inactive: 7.69% |  |
| CCOc1ccc2[nH]c(=O)c(CN(CCCO)S(=O)(=O)c3ccc(F)cc3)cc2c1 | inactive: 17.4% |  |
| O=C(CC1C(=O)NCCN1Cc1ccc(F)cc1Cl)NC1CCCCCCC1 (stereo not drawn) | inactive: 0.573% |  |
| Cc1ccc(C(=O)Nc2ccc3c4c(cccc24)CC3)cc1[N+](=O)[O-] | inactive: 19.6% |  |
| CCN(CC)C(=O)c1sc(NC(=O)C(C)C)c(C#N)c1C | inactive: -5.2% |  |
| Cc1cc(C(=O)NCc2ccccc2F)c2ccccc2n1 | inactive: 16.5% |  |
| CCn1c(SCC(=O)N2CCN(C)CC2)nc2c1c(=O)n(C)c(=O)n2C | inactive: 3.09% |  |
| COC(=O)Cc1[nH]n(-c2nc3ccccc3s2)c(=O)c1C(C)=Nc1ccc(C)cc1 | inactive: -3.26% |  |
| CCc1nc2ccc(C(=O)NCc3ccc(OC)cc3)cn2c1N(C)C(=O)Cc1ccccc1 | inactive: -11.1% |  |
| c1ccc(CN2CCC(Nc3nc(-c4cccs4)nc4ccccc34)CC2)cc1 | inactive: 17.6% |  |
| CCOC(=O)Cc1csc(NS(=O)(=O)c2ccc(OC)cc2)n1 | inactive: -3.75% |  |
| CCN(CC)c1ccc(/C=N/N2C(C)CCCC2C)c(O)c1 (stereo not drawn) | inactive: 7.11% |  |

— PubChem BioAssay AID1347073 (National Center for Advancing Translational Sciences (NCATS), 2019)
